This passage reports cell count results from the supplement of paper PMC4604168 (melanoma cell lines).

This is one part of the list. Many values rest on one well or one pass, so single values are uncertain.
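Further: cells treated in 1,536-well plates, then fixed and DAPI-stained, with nuclei counted from automated high-throughput microscope images.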

The test system of this assay is 501Mel. Briefly: cell count relative to DMSO control; melanoma cells; higher = more viable cells. The settings on record: library dose: standard library concentration; 72 h.
In turn, `CCc1ccc(CCOc2ccc(CC3SC(=O)NC3=O)cc2)nc1` (stereo unspecified) [pioglitazone] + COC(=O)c1sccc1S(=O)(=O)Nc1ccc(Nc2ccccc2)cc1OC [GSK0660] (first compound 10 µM, partner dose 5 µM) returned a cell count of 102%.

Compound `CCc1ccc(CCOc2ccc(CC3SC(=O)NC3=O)cc2)nc1` (stereo unspecified) [pioglitazone] + CC(C)CCN1c2nc(Nc3cc(F)c(O)c(F)c3)ncc2N(C)C(=O)C1C [BID1870] (first compound 10 µM, partner dose 1 µM) came in with a cell count of 72.9%.

For `CN(NC(=O)CC(=O)NN(C)C(=S)c1ccccc1)C(=S)c1ccccc1` + O=S(=O)(c1ccccc1)N(CC(F)(F)F)c1ccc(C(O)(C(F)(F)F)C(F)(F)F)cc1 [T0901317] (first compound 0.03 µM, partner dose 7 µM), the cell count turned out to be 2.28%.

Compound `CN(NC(=O)CC(=O)NN(C)C(=S)c1ccccc1)C(=S)c1ccccc1` + O=C(O)C(=O)Nc1sc2c(c1C(=O)O)CCNC2 [TCS401] (first compound 0.03 µM, partner dose 8.33333 µM) gave a cell count of 9.12%.

`NC(=O)c1ccc(N(C(N)=O)c2c(F)cccc2F)nc1-c1ccc(F)cc1F` + CCN(CC)CCCCNc1ncc2cc(-c3cc(OC)cc(OC)c3)c(NC(=O)NC(C)(C)C)nc2n1 [PD173074] (first compound 2 µM, partner dose 0.5 µM) had a cell count of 111%.

Take `CCc1ccc(CCOc2ccc(CC3SC(=O)NC3=O)cc2)nc1` (stereo unspecified) [pioglitazone] + Oc1nc(-c2ccc(C(F)(F)F)cc2)nc2c1CSCC2 [XAV939] (first compound 10 µM, partner dose 10 µM): the cell count was found to be 102%.

`Cc1ccc(NC(=O)c2cccc(N(C)C)c2)cc1NC(=O)c1ccc(O)cc1` + O=C(O)C(=O)Nc1sc2c(c1C(=O)O)CCNC2 [TCS401] (first compound 10 µM, partner dose 8.33333 µM) returned a cell count of 72.1%.

The compound `NC(=O)c1ccc(N(C(N)=O)c2c(F)cccc2F)nc1-c1ccc(F)cc1F` + c1cc(-c2cnn3cc(-c4ccc(OCCN5CCCCC5)cc4)cnc23)ccn1 [Dorsomorphin] (first compound 2 µM, partner dose 2 µM) had a cell count of 50.2%.

`CC(C)(C)c1cnc(CSc2cnc(NC(=O)C3CCNCC3)s2)o1` + CCN(CC)CCCCNc1ncc2cc(-c3cc(OC)cc(OC)c3)c(NC(=O)NC(C)(C)C)nc2n1 [PD173074] (first compound 0.05 µM, partner dose 0.5 µM) registered a cell count of 66%.

As for `CCCCCCCCc1ccc(CCC(N)(CO)CO)cc1` [fingolimod] + CCc1ccc(CCOc2ccc(CC3SC(=O)NC3=O)cc2)nc1 [pioglitazone] (first compound 10 µM, partner dose 10 µM), the cell count was 0.845%.

On to `CCc1ccc(CCOc2ccc(CC3SC(=O)NC3=O)cc2)nc1` (stereo unspecified) [pioglitazone] + O=C1NC(=O)/C(=C/c2ccc(-c3ccc(F)cc3O)o2)S1 [AS252424] (first compound 10 µM, partner dose 5 µM), for which the cell count was 61.2%.

`CCCCCCCCc1ccc(CCC(N)(CO)CO)cc1` [fingolimod] + CCN(CC)CCCCNc1ncc2cc(-c3cc(OC)cc(OC)c3)c(NC(=O)NC(C)(C)C)nc2n1 [PD173074] (first compound 10 µM, partner dose 0.5 µM) showed a cell count of 1.43%.

`COc1cc2c(Oc3ccc4[nH]c(C)cc4c3F)ncnc2cc1OCCCN1CCCC1` [cediranib] + CC(C)CCN1c2nc(Nc3cc(F)c(O)c(F)c3)ncc2N(C)C(=O)C1C [BID1870] (first compound 2 µM, partner dose 1 µM): the cell count was 58.7%.

In turn, `Cc1ccc(NC(=O)c2cccc(N(C)C)c2)cc1NC(=O)c1ccc(O)cc1` + O=C(Nc1ccccc1)c1cc([N+](=O)[O-])ccc1Cl [GW9662] (first compound 10 µM, partner dose 10 µM) returned a cell count of 69%.

`CCCCCCCCc1ccc(CCC(N)(CO)CO)cc1` [fingolimod] + O=S(=O)(c1ccccc1)N(CC(F)(F)F)c1ccc(C(O)(C(F)(F)F)C(F)(F)F)cc1 [T0901317] (first compound 10 µM, partner dose 7 µM) displayed a cell count of 0.324%.

As for `CN(NC(=O)CC(=O)NN(C)C(=S)c1ccccc1)C(=S)c1ccccc1` + CCN(CC)CCCCNc1ncc2cc(-c3cc(OC)cc(OC)c3)c(NC(=O)NC(C)(C)C)nc2n1 [PD173074] (first compound 0.03 µM, partner dose 0.5 µM), the cell count came to 9.19%.
